The supplement of paper PMC4604168 (melanoma cell lines)
The other results are listed elsewhere or left out. Many values rest on one well or one pass, so single values are uncertain.

System: A101D
Assay: cell count relative to DMSO control; melanoma cells; higher = more viable cells
Conditions: library dose: standard library concentration; 72 h
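Further: cells treated in 1,536-well plates, then fixed and DAPI-stained, with nuclei counted from automated high-throughput microscope images.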

Compound	cell count
O=C(O)c1ccc2c(c1)nc(Nc1cccc(Cl)c1)c1ccncc12 + CC(C)CCN1c2nc(Nc3cc(F)c(O)c(F)c3)ncc2N(C)C(=O)C1C [BID1870] (first compound 2 µM, partner dose 1 µM)	53%
Cc1cc(N2CCOCC2)cc2[nH]c(-c3c(NC[C@@H](O)c4cccc(Cl)c4)cc[nH]c3=O)nc12 + Cn1cc(/C=C2\C(=O)Nc3cccnc32)c2ccccc21 [GW441756] (first compound 1 µM, partner dose 2 µM)	98.5%
O=C(Nc1ccccc1)c1cc([N+](=O)[O-])ccc1Cl + O=C1NC(=O)/C(=C/c2ccc(-c3ccc(F)cc3O)o2)S1 [AS252424] (first compound 10 µM, partner dose 5 µM)	88.4%
O=C(O)c1ccc2c(c1)nc(Nc1cccc(Cl)c1)c1ccncc12 + COc1ccc(COc2ccc(Cc3cnc(N)nc3N)cc2OC)cc1 [GW2580] (first compound 2 µM, partner dose 5 µM)	94.1%
O=C(O)[C@@H]1[O][Sb](=[O])([O][Sb]2(=[O])[O][C@H]([C@H](O)CO)[C@H](O)[C@H](C(=O)O)[O]2)[O][C@H]([C@H](O)CO)[C@@H]1O (some centres undefined) [stibogluconate] + Cn1cc(/C=C2\C(=O)Nc3cccnc32)c2ccccc21 [GW441756] (first compound 10 µM, partner dose 2 µM)	72.9%
O=C(O)[C@@H]1[O][Sb](=[O])([O][Sb]2(=[O])[O][C@H]([C@H](O)CO)[C@H](O)[C@H](C(=O)O)[O]2)[O][C@H]([C@H](O)CO)[C@@H]1O (some centres undefined) [stibogluconate] + Cc1cc([N+](=O)[O-])ccc1NS(=O)(=O)c1cc(Cl)ccc1Cl [FH535] (first compound 10 µM, partner dose 5 µM)	55.7%
O=C(Nc1cc(C(F)(F)F)cc(C(F)(F)F)c1)c1cc(Cl)ccc1O + O=C(Nc1ccccc1)c1cc([N+](=O)[O-])ccc1Cl [GW9662] (first compound 0.08 µM, partner dose 10 µM)	73.9%
Cc1cc(N2CCOCC2)cc2[nH]c(-c3c(NC[C@@H](O)c4cccc(Cl)c4)cc[nH]c3=O)nc12 + O=S(=O)(c1ccccc1)N(CC(F)(F)F)c1ccc(C(O)(C(F)(F)F)C(F)(F)F)cc1 [T0901317] (first compound 1 µM, partner dose 7 µM)	116%
O=C(Nc1cc(C(F)(F)F)cc(C(F)(F)F)c1)c1cc(Cl)ccc1O + O=C1NC(=O)/C(=C/c2ccc(-c3ccc(F)cc3O)o2)S1 [AS252424] (first compound 0.08 µM, partner dose 5 µM)	107%
O=C(O)c1ccc2c(c1)nc(Nc1cccc(Cl)c1)c1ccncc12 + CCN(CC)CCCCNc1ncc2cc(-c3cc(OC)cc(OC)c3)c(NC(=O)NC(C)(C)C)nc2n1 [PD173074] (first compound 2 µM, partner dose 0.5 µM)	91.2%
O=C(Nc1cc(C(F)(F)F)cc(C(F)(F)F)c1)c1cc(Cl)ccc1O + COC(=O)c1sccc1S(=O)(=O)Nc1ccc(Nc2ccccc2)cc1OC [GSK0660] (first compound 0.08 µM, partner dose 5 µM)	92.8%
O=C(O)c1ccc2c(c1)nc(Nc1cccc(Cl)c1)c1ccncc12 + COc1cc(N2CCC(N3CCN(C)CC3)CC2)ccc1Nc1ncc(Cl)c(Nc2ccccc2S(=O)(=O)C(C)C)n1 [NVP-TAE684] (first compound 2 µM, partner dose 0.4 µM)	78.5%
Cc1cc(N2CCOCC2)cc2[nH]c(-c3c(NC[C@@H](O)c4cccc(Cl)c4)cc[nH]c3=O)nc12 + O=C1NC(=O)/C(=C/c2ccc(-c3ccc(F)cc3O)o2)S1 [AS252424] (first compound 1 µM, partner dose 5 µM)	112%
O=C(O)[C@@H]1[O][Sb](=[O])([O][Sb]2(=[O])[O][C@H]([C@H](O)CO)[C@H](O)[C@H](C(=O)O)[O]2)[O][C@H]([C@H](O)CO)[C@@H]1O (some centres undefined) [stibogluconate] + COc1cc(N2CCC(N3CCN(C)CC3)CC2)ccc1Nc1ncc(Cl)c(Nc2ccccc2S(=O)(=O)C(C)C)n1 [NVP-TAE684] (first compound 10 µM, partner dose 0.4 µM)	82.1%
